This is one part of the list. At the low end of the ranking, values are background and their order means little.

This assay has as its target GST-SBP-SLBP (stem-loop binding protein) (UniProt Q14493). Description: targeted RNA Bind-n-Seq.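 Also: DESeq read counts versus GST-SBP nonspecific binding control pulldown.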 The following applies: RBNS binding buffer: 25 mM Tris pH 7.5, 150 mM KCl, 3 mM MgCl2, 0.1% Tween, 0.5 mg/mL BSA, 1 mM DTT; 27 nM protein, 750 pM RNA pool; temperature not stated; high values mean tight binding.
For the sequence “GGUCACGUCUCAAUCAACUCAACUCCCAGGGAAAACCCUGGCAUUCUCAACAGCUCGCAGUCAAG”, the binding signal (log2 fold change) was -0.308.
As for “GGUCACGUCUCAAUCAACUCAAUGUCAGGAGUUUACUCCUGCUUUCUCAACAGCUCGCAGUCAAG”, the binding signal (log2 fold change) is -0.0137.
As for “GGUCACGUCUCAAUCAACUCUAUCGAGGGGGGGAAAACCCCUUUACCCUCAUCAUCAACAGCUCGCAGUCAAG”, the figure is -0.0498; as for “GGUCACGUCUCAAUCAACUCUAUAGAGGGGGGGAAAACCCCUUUACCCUCACUUUCAACAGCUCGCAGUCAAG”, -0.537; as for “GGUCACGUCUCAAUCAACUCUUCGCCCAGGGAAAUCCCUGGUAUUCUCAACAGCUCGCAGUCAAG”, -0.202.
In the case of “GGUCACGUCUCAAUCAACUCAUGUCCAGGAGUUUUCUCCUGCUUUUUCAACAGCUCGCAGUCAAG”, the binding signal (log2 fold change) is -0.126.
As for “GGUCACGUCUCAAUCAACUCCAUCGAGGGGGGGAAAACCCCUUUACCCUCAUAUUCAACAGCUCGCAGUCAAG”, the figure is 0.0524; as for “GGUCACGUCUCAAUCAACUCAACUUCCAGGGAAAGCCCUGGCAUAUUCAACAGCUCGCAGUCAAG”, -0.121.
As for “GGUCACGUCUCAAUCAACUCUCCAGAGGGGGGGAAAACCCCUUUACCCUCAAUUUCAACAGCUCGCAGUCAAG”, the figure is -0.452; as for “GGUCACGUCUCAAUCAACUCAUCAGAGGGGGGGAAAACCCCUUUACCCUCAUCCUCAACAGCUCGCAGUCAAG”, 0.388.
Regarding “GGUCACGUCUCAAUCAACUCUAACGAGGGGGGGAAAACCCCUUUGCCCUCACAUUCAACAGCUCGCAGUCAAG”, the binding signal (log2 fold change) was -0.0727.
With “GGUCACGUCUCAAUCAACUCUCCGGAGGGGGGGAAAACCCCUUUACCCUCAAUAUCAACAGCUCGCAGUCAAG” the figure was -0.546; with “GGUCACGUCUCAAUCAACUCUAUCUCAGGAGUUUCCUCCUGCUAAUUCAACAGCUCGCAGUCAAG”, 0.238; with “GGUCACGUCUCAAUCAACUCCCCAGAGGGGGGGAAAACCCCUUUGCCCUCCAAAUCAACAGCUCGCAGUCAAG”, 0.00837.
Regarding “GGUCACGUCUCAAUCAACUCUAUCUCCAGGGAAACCCCUGGUAAACUCAACAGCUCGCAGUCAAG”, the binding signal (log2 fold change) was -0.0437.
As for “GGUCACGUCUCAAUCAACUCUACUCCCAGGGAAAUCCCUGGCAAUCUCAACAGCUCGCAGUCAAG”, the figure is -0.238; as for “GGUCACGUCUCAAUCAACUCACAAGAGGGGGGGAAAACCCCUUUACCCUCGUAAUCAACAGCUCGCAGUCAAG”, -0.00206; as for “GGUCACGUCUCAAUCAACUCAAUCCCAGGAGUUUCCUCCUGCAUAGUCAACAGCUCGCAGUCAAG”, 0.225.
With “GGUCACGUCUCAAUCAACUCAAUUCCAGGAGUUUACUCCUGCUAAUUCAACAGCUCGCAGUCAAG” the figure was 0.043.
As to “GGUCACGUCUCAAUCAACUCAGUCUCCAGGGAAAACCCUGGCUUUCUCAACAGCUCGCAGUCAAG”, the binding signal (log2 fold change) was -0.256.

The values are drawn from article PMC5892938.
